Here are results for 87 molecules from ChEMBL document CHEMBL1201862, “PubChem BioAssay data set” (2004).

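Cultured in 96-well plates, cells were exposed to test compound for 48 hours across five concentrations. Abbreviation: GI50, concentration required for 50% inhibition of growth.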 Activity calls are given as the source filed them. Rule as the data show it: active = GI50 up to about 1.1 µM and inactive = higher.

This experiment relates to NCI-H322M. Put plainly: NCI tumour cell line growth inhibition, 48 h.
On to `C(=C\c1ccco1)/c1cccc(/C=C/c2ccco2)n1`, for which the GI50 was inactive: > 50 µM.

Regarding `Cc1cc2c(nn1)CCc1c-2no[n+]1[O-]`, the GI50 was inactive: > 100 µM.

`CN(C)c1ccc(-c2cc(O)c3ccccc3n2)cc1`: the GI50 is inactive: > 100 µM.

For `CN(C)c1nc(N)c(C#N)c(C#N)c1C#N`, the GI50 was inactive: > 10 µM.

Regarding `CC(C)(C)N(Cc1ccc2c(c1)OCO2)C(=O)/C=C\[S+]([O-])c1ccccc1` (configuration not stated), the GI50 is inactive: 12.1 µM.

Consider `Clc1ccc(CSc2ncnc3c2ncn3C2CCCCO2)cc1` (configuration not stated), for which the GI50 is inactive: 40.2 µM.

As for `O=C(Oc1ccc(S(=O)(=O)F)cc1F)c1ccccc1Cl`, the GI50 was inactive: 52.2 µM.

For `COc1c2c(c3c(c1OC)c(=O)c1ccccc1n3C)OCO2`, the GI50 is inactive: > 100 µM.

On to `CCc1ccc2nccc(NCCCN(C)C)c2c1[N+](=O)[O-]`, for which the GI50 is inactive: > 100 µM.

For the molecule `CCN(CCCN(CC)C(=O)Nc1c(C)cccc1C)C(=O)Nc1c(C)cccc1C`, the GI50 was inactive: > 100 µM.

Consider `O=C1CS(=O)(=O)C(c2cccc(Oc3ccccc3)c2)N1c1ccccc1` (configuration not stated), for which the GI50 is inactive: 34.8 µM.

Turning to `Cc1cc(C)nc(SCCc2cccc[n+]2C)n1`, the GI50 is inactive: > 100 µM.

For `Cn1c2cc(Cl)ccc2c2ccc3c(c21)C(=O)C=CC3=O`, the GI50 is inactive: > 100 µM.

`CC(=O)[C@@]1(c2ccccc2)CC2(CCN(C)CC2)O[C@H]1C`: the GI50 is inactive: > 100 µM.

As for `O=c1[nH]c(-c2ccc(Cl)cc2)cc2ccsc12`, the GI50 was inactive: 3.96 µM.

For `Cc1nn(C(=O)Cc2ccccc2)c2c1C(c1ccccc1)SC(=N)N2` (configuration not stated), the GI50 is inactive: > 100 µM.

In the case of `O=c1c2c3c(sc2nc(S)n1-c1ccccc1)CCCc1ccc([N+](=O)[O-])cc1-3`, the GI50 is inactive: > 100 µM.

Regarding `CCOC(CN(C)C(=S)Nc1cccc2ccccc12)OCC`, the GI50 is inactive: > 10 µM.

On to `CN(C)c1ccc(N2C(=S)SC(=N\c3ccccc3)/C2=N/c2ccccc2)cc1`, for which the GI50 is inactive: > 100 µM.

For `COc1cc(C2C(C(=O)O)=C(COC(C)=O)Oc3cc4c(cc32)OCO4)cc(OC)c1OC` (configuration not stated), the GI50 is inactive: > 100 µM.

For the molecule `CC(c1ccccc1)/[N+]([O-])=C/c1ccccc1` (configuration not stated), the GI50 was inactive: > 100 µM.

As to `O=C(O)CCc1cccc2c1oc1c(CCC(=O)O)cccc12`, the GI50 was inactive: > 100 µM.

As to `Cc1cc(NS(=O)(=O)c2ccc(NC(=O)c3ccc(Cl)c4c(Nc5ccc(S(N)(=O)=O)cc5)c5ccccc5nc34)cc2)no1`, the GI50 is inactive: 18.6 µM.

For the molecule `N#Cc1ccccc1OCCOc1ccccc1C#N`, the GI50 was inactive: > 100 µM.

As to `CSC(SC)=C1CC(=O)Nc2ccccc2C1=O`, the GI50 is inactive: > 100 µM.

As to `Brc1cccc(/C=N/C23CC4CC(CC(C4)C2)C3)c1`, the GI50 is inactive: > 100 µM.

Turning to `Cc1cc2occ(S(=O)(=O)NC(=O)Nc3ccc(Cl)cc3)c(=O)c2c(=O)o1`, the GI50 is inactive: > 100 µM.

On to `CC1(C)/C(=N\NC(N)=O)C2CCC1C2` (configuration not stated), for which the GI50 is inactive: > 100 µM.

Consider `Cc1cc(C2(c3cc(C)c(O)c4ncccc34)OC(=O)c3ccccc32)c2cccnc2c1O`, for which the GI50 is active: 0.372 µM.

Regarding `C=C(Br)CN(C#N)CC(=C)Br`, the GI50 is inactive: > 100 µM.

For `Cc1cc(=O)oc2cc3c(cc12)Oc1ccccc1O3`, the GI50 is inactive: > 100 µM.

Turning to `CC(C)(C)/N=C/N1C=Cc2nc3ccccc3cc2C1`, the GI50 is inactive: > 100 µM.

In the case of `CC1CC(C)CC(C)C(O)/C(C#N)=C/C=C/CC(C2CCCC2C(=O)O)OC(=O)CC(O)C(C)C1` (configuration not stated), the GI50 was active: 0.0228 µM.

Regarding `COC(=O)c1cc(C)ccc1CC(Cc1ccc(C)cc1)C(=O)OC` (configuration not stated), the GI50 was inactive: > 100 µM.

For `COc1cc2nc(-c3cccs3)nc(N3C(c4cc(OC)c(OC)c(OC)c4)=NNC(=O)c4ccccc43)c2cc1OC`, the GI50 was inactive: 24.3 µM.

For `NC(=S)N1N=C2c3ccccc3CC[C@H]2[C@@H]1c1ccc(Cl)cc1`, the GI50 is inactive: 30.8 µM.

Take `COC1(OC)C2C=CC1C([C@](C)(N)CO)C2` (some centres not stated): the GI50 was inactive: > 100 µM.

For `Cc1ccc2c(/C=C/c3ccc(N(C)C)cc3)ccc(C(C)C)cc1-2`, the GI50 is inactive: > 100 µM.

Turning to `CN(C(=O)C12C3C4C5C3C1(C(=O)C13C6C7C8C6C1C8C73)C5C42)C(C)(C)C` (configuration not stated), the GI50 was inactive: > 50 µM.

Turning to `Nn1c(CNc2ccc(-c3nnc(Nc4ccc(Cl)cc4)n3N)cc2)nnc1Nc1ccc(Cl)cc1`, the GI50 is inactive: > 100 µM.

Turning to `CCOC(=O)c1cnc(N(C)C)nc1SC(=N)N`, the GI50 is inactive: > 100 µM.

`N#CNc1nc(C(=O)Nc2ccc(Cl)cc2)cc(-c2ccccc2)n1`: the GI50 is inactive: > 100 µM.

As to `CCOC(=O)CN1C(=O)c2cccc3cc([N+](=O)[O-])cc(c23)C1=O`, the GI50 was inactive: 12.6 µM.

With `O=C(Nc1ccc(Cl)cc1C(=O)O)c1ccc([N+](=O)[O-])cc1`, the GI50 is inactive: 19.9 µM.

`CCCCCCCCCCCCNC(=S)OCCCC`: the GI50 is inactive: > 100 µM.

For `c1nc(N2CC2)c2cnn(C3CCCCO3)c2n1` (configuration not stated), the GI50 was inactive: > 100 µM.

For `O=C1OC(CS(=O)(=O)c2ccccc2)CC1O` (configuration not stated), the GI50 is inactive: > 100 µM.

Consider `Cc1cc2c(=O)c3ccccc3oc2c(C#N)c1C`, for which the GI50 was inactive: 84.5 µM.

Regarding `O=C1c2c(nc3ccccc3c2-c2ccccc2)CN1Nc1ccccn1`, the GI50 was inactive: > 100 µM.

Turning to `NCCN1C(=O)c2ccccc2C1c1ccc(Cl)cc1` (configuration not stated), the GI50 is inactive: > 100 µM.

In the case of `Cc1ccccc1Nc1cn(COCc2ccccc2)c(=O)[nH]c1=O`, the GI50 is inactive: > 100 µM.

`CCN(CC)C(c1ccc(N(C)C)cc1)C(c1ccc(N(C)C)cc1)N(CC)CC` (configuration not stated): the GI50 was inactive: > 72.9 µM.

Regarding `Cc1cccc(O)c1-c1nnc(CCCCCCCCc2nnc(-c3c(C)cccc3O)n2N)n1N`, the GI50 is inactive: > 100 µM.

With `S=C(N/N=C/c1ccccn1)N1CCCCCC1`, the GI50 was active: < 0.0446 µM.

As for `CSc1nc2c(ncn2C2OCC(O)C(O)C2O)c(=O)n1C` (configuration not stated), the GI50 is inactive: > 100 µM.

In the case of `COc1cc2noc(-c3ccccc3)c2cc1OC`, the GI50 was inactive: > 100 µM.

With `O=CC(O)C(O)C(O)C(O)C(=O)NCCCCCCCCCCCCNC(=O)C(O)C(O)C(O)C(O)C=O` (configuration not stated), the GI50 was inactive: > 100 µM.

Take `O=C(Nc1ccc(C(F)(F)F)cc1)NC(F)(F)F`: the GI50 is inactive: > 100 µM.

With `O=C(Nc1noc(-c2ccccc2)n1)c1ccccc1CNc1noc(-c2ccccc2)n1`, the GI50 is inactive: > 100 µM.

Regarding `Cn1c(N)cc(=O)nc1N`, the GI50 was inactive: > 100 µM.

Consider `O=C(Nc1cc([N+](=O)[O-])cc([N+](=O)[O-])c1)OC1C2CCC1C1OC1C2` (configuration not stated), for which the GI50 is inactive: > 50 µM.

Regarding `O=C(Cc1nc2ccccc2o1)C(=O)Nc1cccc(C(F)(F)F)c1`, the GI50 was inactive: > 100 µM.

In the case of `Cc1ccc(NC(=O)C(=O)C2C(=O)NC(=O)NC2=O)cc1C`, the GI50 is inactive: > 100 µM.

Consider `NCCSSCc1ccccc1CSSCCN`, for which the GI50 is inactive: > 100 µM.

Regarding `Clc1ccc(SCCCCCCCCCCSc2ccc(Cl)cc2)cc1`, the GI50 is inactive: > 70.1 µM.

As to `CCOC(=O)c1c(-c2ccccc2)c(C(OC(c2ccccc2)c2c(-c3ccccc3)c(C(=O)OCC)n3ccccc23)c2ccccc2)c2ccccn12` (configuration not stated), the GI50 was inactive: > 100 µM.

As for `COC1/C(=C\c2ccccc2I)c2ccccc2N1C(C)=O` (configuration not stated), the GI50 was inactive: 17.2 µM.

Turning to `CC(C)OC(=O)c1ccc(CCC2=CC(=O)C=CC2=O)cc1`, the GI50 was inactive: 35.2 µM.

On to `COC(=O)CCC1(NS(=O)(=O)c2ccc(C)cc2)CCC(C(C)(C)C)CC1` (configuration not stated), for which the GI50 is inactive: 25.1 µM.

For `Cc1ccc(OCCn2cc(Nc3ccccc3)c(=O)[nH]c2=O)cc1`, the GI50 is inactive: > 100 µM.

Turning to `CC(C)(C)OC(=O)NC(Cc1ccc([N+](=O)[O-])cc1)C(=O)NC(CCCCNC(=O)OCc1ccccc1)C(=O)ON1C(=O)CCC1=O` (configuration not stated), the GI50 was inactive: > 100 µM.

Take `O=[N+]([O-])C(=C(N1CCOCC1)N1CCOCC1)/C(Cl)=C(\Cl)[N+](=O)[O-]`: the GI50 was inactive: 23 µM.

With `Cc1ccc(S(=O)(=O)N/N=C2\CCCCC23CCC(=O)NC3)cc1` (configuration not stated), the GI50 was inactive: > 100 µM.

`O=c1nc(-c2ccccc2)scc1-c1ccccc1`: the GI50 was inactive: > 100 µM.

As for `CC(=O)NC1C(OC2C(CO)OC(OCC3OC(n4ccc(N)nc4=O)C(O)C3O)C(NC(C)=O)C2O)OC(CO)C(O)C1O` (configuration not stated), the GI50 is inactive: > 100 µM.

`CC(C)C1=CC23CCC4C(C)(C(=O)O)CCCC4(C)C2CC1C1C(=O)N(c2cccc(N4C(=O)C5C6CC7C8(C)CCCC(C)(C(=O)O)C8CCC7(C=C6C(C)C)C5C4=O)c2)C(=O)C13` (configuration not stated): the GI50 was inactive: 1.93 µM.

In the case of `CCCOC1OC(CS(=O)(=O)O)C(O)C(O)C1O` (configuration not stated), the GI50 is inactive: > 100 µM.

For `O=C1C=CC(=CC=C2C=CN(CCCCCCCCCCC(=O)NCCCCCCCCCCCC(=O)O)C=C2)C=C1`, the GI50 is inactive: > 100 µM.

As to `Clc1ccc(Cc2nc3cc(Cl)c(Cl)cc3n2CC2CCCN3CCCCC23)cc1` (configuration not stated), the GI50 was inactive: 12.7 µM.

Take `FC1OC2OC1C(OCc1ccccc1)C(OCc1ccccc1)C2OCc1ccccc1` (configuration not stated): the GI50 was inactive: > 100 µM.

On to `CCC1(O)C(=O)OCc2c1cc1n(c2=O)Cc2cc3ccccc3nc2-1` (configuration not stated), for which the GI50 was active: 0.184 µM.

For `CS(=O)(=O)CS(=O)(=O)OCCCl`, the GI50 was inactive: 396 µM.

Take `CCCCCCOC(=O)/C=C/[C@]1(CO)C/C(=C/CC(C(C)C)C(C)C)C(=O)O1`: the GI50 is inactive: 11.5 µM.

With `Cc1ccccc1N(CC(=O)O)S(=O)(=O)c1ccccc1`, the GI50 was inactive: > 100 µM.

On to `CNc1ccc(-c2nc3cc(C)ccc3o2)cc1`, for which the GI50 was inactive: > 100 µM.

As for `Cn1c2c(c3ccccc3c1=O)C(=O)c1ccccc1-2`, the GI50 was inactive: 28.1 µM.

As to `CN(C)CCNC(=O)c1cccc2nc3c(nc12)-c1ccccc1C3=O`, the GI50 was inactive: 11.5 µM.
